From PubChem BioAssay AID1460 (National Center for Advancing Translational Sciences (NCATS), 2008)
“And” between values parts separate entries of the source, which are not always exact repeats. Equal values may be shown once. The whole screen tested about 270,000 compounds, of which about 5,800 (2.1%) were called active. Inconclusive results, whose numbers are uncertain, are shown with a selection of clear calls. Calls come from the whole dose curve; as a rule, active = well fitted inhibition curve with a large enough effect; inconclusive = small, poorly fitted or top-dose-only effect; inactive = flat fitted curve, though single readings scatter. A potency beside an inconclusive call is a rough fit, not a confirmed value.

target: Microtubule-associated protein tau (Homo sapiens) (UniProt P10636); assay: qHTS for Inhibitors of Tau Fibril Formation, Thioflavin T Binding; conditions: recombinant tau K18 P301L, heparin-induced fibrillization, ThT fluorescence; series mostly up to 57.4 µM; note: nearly all actives have a fitted effect of over 55% in size
In short: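 Using a mix of unlabeled (15 uM) and Alexa 594-labeled (0.24 uM) tau K18 P301L, heparin-triggered fibrillization over 6 hr at 37 C was scored by ThT fluorescence.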
Potency is the fitted concentration of half-maximal effect; tags give direction and shape of the fitted curve.

Sequence of UniProt P10636 (P10636 whole entry, looked up): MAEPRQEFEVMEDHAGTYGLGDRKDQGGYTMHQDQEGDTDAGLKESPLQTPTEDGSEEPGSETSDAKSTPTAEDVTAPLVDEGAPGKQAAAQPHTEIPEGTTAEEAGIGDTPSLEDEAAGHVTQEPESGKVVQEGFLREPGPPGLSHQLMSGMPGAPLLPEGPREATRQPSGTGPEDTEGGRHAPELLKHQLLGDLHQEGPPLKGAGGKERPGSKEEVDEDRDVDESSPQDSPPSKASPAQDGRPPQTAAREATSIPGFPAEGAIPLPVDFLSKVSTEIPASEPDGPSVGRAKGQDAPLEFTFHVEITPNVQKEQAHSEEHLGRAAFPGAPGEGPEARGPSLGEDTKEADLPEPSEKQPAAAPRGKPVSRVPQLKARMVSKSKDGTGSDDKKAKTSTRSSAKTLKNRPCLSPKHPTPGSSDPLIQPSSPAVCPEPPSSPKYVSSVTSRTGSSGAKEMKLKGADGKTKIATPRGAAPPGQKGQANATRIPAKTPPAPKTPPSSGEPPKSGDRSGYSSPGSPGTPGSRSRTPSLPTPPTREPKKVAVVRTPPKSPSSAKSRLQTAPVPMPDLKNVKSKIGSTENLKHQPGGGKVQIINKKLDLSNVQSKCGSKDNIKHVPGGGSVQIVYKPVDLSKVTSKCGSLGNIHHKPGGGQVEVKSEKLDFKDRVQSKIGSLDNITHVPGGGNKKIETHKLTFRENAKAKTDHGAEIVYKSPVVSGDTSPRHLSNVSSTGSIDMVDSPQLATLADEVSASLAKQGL

Q: With `O=C(NCCN1CCN(C(=O)c2cccs2)CC1)C(=O)Nc1ccc(Br)cc1` as the compound, how does the Potency read?
A: inconclusive: 12.6 µM [inhibitor, partial curve]

Q: For `CCOC(=O)C1(C)/C(=N/Nc2ccc(Cl)cc2)C(=O)C(=O)N1c1ccccc1` (stereo not given), which Potency is on record?
A: active: 14.1 µM

Q: For `COC1=C(Nc2ccccc2)C(=O)c2ccccc2C1=O`, which Potency is on record?
A: active: 7.08 µM

Q: How did the Potency turn out when `Cc1ccccc1Nc1nn2c(=O)c3ccc(C(=O)NCc4cccs4)cc3nc2s1` was run?
A: inconclusive: 39.8 µM [activator, single point]

Q: With `NC(=O)CSc1nnnn1-c1ccccc1Cl` as the compound, how does the Potency read?
A: inactive

Q: How did the Potency turn out when `Cc1cccc(NC(=S)NCCSc2ccc(Cl)cc2)c1` was run?
A: inactive

Q: With `COC(=O)C1CC1C(NC(=O)[C@H]1CCCCN1)c1ccccc1` (stereo not given in full) as the compound, how does the Potency read?
A: inactive

Q: How did the Potency turn out when `N#Cc1c2c(c(-c3ccccc3Cl)[nH]c1=S)CCCC2` was run?
A: inactive

Q: With `CSc1ccc(S(=O)(=O)Nc2ccc(S(=O)(=O)Nc3ccc(C)cc3)cc2)cc1` as the compound, how does the Potency read?
A: inactive

Q: For `Cc1ccc(C(=O)N/N=C\c2ccc[nH]2)cc1[N+](=O)[O-]`, which Potency is on record?
A: inconclusive: 28.2 µM [inhibitor, partial curve]

Q: For `Cc1ccc(-c2c[n+](CC(=O)c3ccc(Br)cc3)c3n2CCCCC3)cc1`, which Potency is on record?
A: inconclusive: 12.6 µM [inhibitor, partial curve]

Q: With `Cc1ccc2sc(N(CCCN(C)C)C(=O)c3ccc(Br)s3)nc2c1C` as the compound, how does the Potency read?
A: inconclusive: 44.7 µM [activator, single point]

Q: How did the Potency turn out when `COc1ccc(C(CNC(=O)c2oc3cc(C)c(C)cc3c2C)N2CCCCC2)cc1` (stereo not given) was run?
A: inconclusive: 20 µM [inhibitor, single point]

Q: `NS(=O)(=O)c1cc(C(=O)OCC(=O)Nc2ccc(Cl)cc2[N+](=O)[O-])ccc1Cl` was tested. Which Potency did it give?
A: inconclusive: 17.8 µM [inhibitor, single point]

Q: How did the Potency turn out when `Cc1sc2nc(CN3CCOCC3)nc(Oc3ccc(NC(=O)c4ccco4)cc3)c2c1C` was run?
A: inconclusive: 44.7 µM [inhibitor, single point] and inconclusive: 22.4 µM [inhibitor, single point]

Q: Which Potency does the source give for `COc1ccc(NC(=O)CSc2nc3ccccc3nc2N2CCCCC2)cc1` here?
A: inconclusive: 11.2 µM [inhibitor, partial curve]

Q: With `CCOc1ccccc1N1CCN(C2=C(NS(=O)(=O)c3cccs3)C(=O)c3ccccc3C2=O)CC1` as the compound, how does the Potency read?
A: active: 8.91 µM

Q: For `Cc1cc(C)c(-c2c(O)c3cccc4c3n(c2=O)CCC4)c(C)c1`, which Potency is on record?
A: inactive

Q: `Fc1ccccc1CSc1ncnc2c1oc1ccccc12` was tested. Which Potency did it give?
A: inconclusive: 11.2 µM [inhibitor, partial curve]

Q: For `Cc1nc(-c2ccc(F)cc2)sc1CCNC(=O)c1cccs1`, which Potency is on record?
A: inconclusive: 8.91 µM [inhibitor, full curve, poor fit]
